# In the supplement of paper PMC8728848:
# Some of the results follow.
# B1: Banana lectin (Musa acuminata) (protein)
# chain: MNGAIKVGAHGGNGGSAFDMGPAYRIISVKIFSGDVVDGVDVTFTYYGKTETRHYGGSGGTPHEIVLQEGEYLVGMAGEVANYHGAVVLGKLGFSTNKKAYGPFGNTGGTPFSLPIAAGKISGFFGRGGKFLDAIGVYLEPLEHHHHHH
# Experiments:
# Assay in all cases: glycan array binding signal (z-score within array); higher = stronger binding
# Settings in all cases: glycan notation: IUPAC condensed, linker removed; mutation: W10H
# Neu5Ac(a2-3)GalNAc = biological target: Neu5Ac(a2-3)GalNAc
# In short: (§1)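 Arrays were curated from the Consortium for Functional Glycomics database, 3228 in total, and kept only where the protein sequence was available. Binding is expressed as a within-array Z-score. This score was averaged across arrays of the same protein sequence at different concentrations or buffers and across linkers, and negative values can be read as non-binding.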
# [1] = biological target: Neu5Ac(a2-3)GalNAc(b1-4)GlcNAc
# In short: as §1
# [2] = biological target: Neu5Ac(a2-3)[GalNAc(b1-4)]Gal(b1-4)Glc
# In short: as §1
# [3] = biological target: Neu5Ac(a2-3)[GalNAc(b1-4)]Gal(b1-4)GlcNAc
# In short: as §1
# [4] = biological target: Neu5Ac(a2-3)[GalNAc(b1-4)]Gal(b1-4)GlcNAc(b1-3)GalNAc
# In short: as §1
# [5] = biological target: Neu5Ac(a2-3)[Neu5Ac(a2-6)]GalNAc
# In short: as §1
# Neu5Ac(a2-6)Gal = biological target: Neu5Ac(a2-6)Gal
# In short: as §1
# [6] = biological target: Neu5Ac(a2-6)Gal(b1-3)GlcNAc(b1-3)[Gal(b1-4)GlcNAc(b1-6)]Gal(b1-4)Glc
# In short: as §1
# Neu5Ac(a2-6)Gal(b1-4)Glc = biological target: Neu5Ac(a2-6)Gal(b1-4)Glc
# In short: as §1
# [7] = biological target: Neu5Ac(a2-6)Gal(b1-4)GlcNAc
# In short: as §1
# [8] = biological target: Neu5Ac(a2-6)Gal(b1-4)GlcNAc(b1-2)Man
# In short: as §1
# [9] = biological target: Neu5Ac(a2-6)Gal(b1-4)GlcNAc(b1-2)Man(a1-3)Man(b1-4)GlcNAc(b1-4)GlcNAc
# In short: as §1
# [10] = biological target: Neu5Ac(a2-6)Gal(b1-4)GlcNAc(b1-2)Man(a1-3)[Gal(b1-4)GlcNAc(b1-2)Man(a1-6)]Man(b1-4)GlcNAc(b1-4)GlcNAc
# In short: as §1
# [11] = biological target: Neu5Ac(a2-6)Gal(b1-4)GlcNAc(b1-2)Man(a1-3)[GlcNAc(b1-2)Man(a1-6)]Man(b1-4)GlcNAc(b1-4)GlcNAc
# In short: as §1
# [12] = biological target: Neu5Ac(a2-6)Gal(b1-4)GlcNAc(b1-2)Man(a1-3)[GlcNAc(b1-4)][Neu5Ac(a2-6)Gal(b1-4)GlcNAc(b1-2)Man(a1-6)]Man(b1-4)GlcNAc(b1-4)GlcNAc
# In short: as §1
# [13] = biological target: Neu5Ac(a2-6)Gal(b1-4)GlcNAc(b1-2)Man(a1-3)[Man(a1-6)]Man(b1-4)GlcNAc(b1-4)GlcNAc
# In short: as §1
# [14] = biological target: Neu5Ac(a2-6)Gal(b1-4)GlcNAc(b1-2)Man(a1-3)[Neu5Ac(a2-3)Gal(b1-4)GlcNAc(b1-2)Man(a1-6)]Man(b1-4)GlcNAc(b1-4)GlcNAc
# In short: as §1
# [15] = biological target: Neu5Ac(a2-6)Gal(b1-4)GlcNAc(b1-2)Man(a1-3)[Neu5Ac(a2-6)Gal(b1-4)GlcNAc(b1-2)Man(a1-6)]Man(b1-4)GlcNAc(b1-4)GlcNAc
# In short: as §1
# [16] = biological target: Neu5Ac(a2-6)Gal(b1-4)GlcNAc(b1-2)Man(a1-3)[Neu5Ac(a2-6)Gal(b1-4)GlcNAc(b1-2)Man(a1-6)]Man(b1-4)GlcNAc(b1-4)[Fuc(a1-6)]GlcNAc
# In short: as §1
# [17] = biological target: Neu5Ac(a2-6)Gal(b1-4)GlcNAc(b1-2)Man(a1-6)Man(b1-4)GlcNAc(b1-4)GlcNAc
# In short: as §1
# [18] = biological target: Neu5Ac(a2-6)Gal(b1-4)GlcNAc(b1-2)Man(a1-6)[Gal(b1-4)GlcNAc(b1-2)Man(a1-3)]Man(b1-4)GlcNAc(b1-4)GlcNAc
# In short: as §1
# [19] = biological target: Neu5Ac(a2-6)Gal(b1-4)GlcNAc(b1-2)Man(a1-6)[GlcNAc(b1-2)Man(a1-3)]Man(b1-4)GlcNAc(b1-4)GlcNAc
# In short: as §1
# [20] = biological target: Neu5Ac(a2-6)Gal(b1-4)GlcNAc(b1-2)Man(a1-6)[Man(a1-3)]Man(b1-4)GlcNAc(b1-4)GlcNAc
# In short: as §1
# [21] = biological target: Neu5Ac(a2-6)Gal(b1-4)GlcNAc(b1-2)[Neu5Ac(a2-6)Gal(b1-4)GlcNAc(b1-4)]Man(a1-3)[GlcNAc(b1-4)][Neu5Ac(a2-6)Gal(b1-4)GlcNAc(b1-2)[Neu5Ac(a2-6)Gal(b1-4)GlcNAc(b1-6)]Man(a1-6)]Man(b1-4)GlcNAc(b1-4)GlcNAc
# In short: as §1
# [22] = biological target: Neu5Ac(a2-6)Gal(b1-4)GlcNAc(b1-2)[Neu5Ac(a2-6)Gal(b1-4)GlcNAc(b1-4)]Man(a1-3)[GlcNAc(b1-4)][Neu5Ac(a2-6)Gal(b1-4)GlcNAc(b1-4)Man(a1-6)]Man(b1-4)GlcNAc(b1-4)GlcNAc
# In short: as §1
# [23] = biological target: Neu5Ac(a2-6)Gal(b1-4)GlcNAc(b1-2)[Neu5Ac(a2-6)Gal(b1-4)GlcNAc(b1-6)]Man(a1-6)[Neu5Ac(a2-6)Gal(b1-4)GlcNAc(b1-2)Man(a1-3)][GlcNAc(b1-4)]Man(b1-4)GlcNAc(b1-4)GlcNAc
# In short: as §1
# [24] = biological target: Neu5Ac(a2-6)Gal(b1-4)GlcNAc(b1-3)Gal(b1-3)GlcNAc
# In short: as §1
# [25] = biological target: Neu5Ac(a2-6)Gal(b1-4)GlcNAc(b1-3)Gal(b1-4)GlcNAc
# In short: as §1
# [26] = biological target: Neu5Ac(a2-6)Gal(b1-4)GlcNAc(b1-3)Gal(b1-4)GlcNAc(b1-2)Man(a1-3)[Neu5Ac(a2-6)Gal(b1-4)GlcNAc(b1-3)Gal(b1-4)GlcNAc(b1-2)Man(a1-6)]GalNAc
# In short: as §1
# [27] = biological target: Neu5Ac(a2-6)Gal(b1-4)GlcNAc(b1-3)Gal(b1-4)GlcNAc(b1-3)Gal(b1-4)GlcNAc
# In short: as §1
# [28] = biological target: Neu5Ac(a2-6)Gal(b1-4)GlcNAc(b1-3)Gal(b1-4)GlcNAc(b1-3)Gal(b1-4)GlcNAc(b1-2)Man(a1-3)[Neu5Ac(a2-6)Gal(b1-4)GlcNAc(b1-3)Gal(b1-4)GlcNAc(b1-3)Gal(b1-4)GlcNAc(b1-2)Man(a1-6)]GalNAc
# In short: as §1
# [29] = biological target: Neu5Ac(a2-6)Gal(b1-4)GlcNAc(b1-3)Gal(b1-4)GlcNAc(b1-3)GalNAc
# In short: as §1
# [30] = biological target: Neu5Ac(a2-6)Gal(b1-4)GlcNAc(b1-3)Gal(b1-4)GlcNAc(b1-3)[Neu5Ac(a2-6)Gal(b1-4)GlcNAc(b1-3)Gal(b1-4)GlcNAc(b1-6)]GalNAc
# In short: as §1
# [31] = biological target: Neu5Ac(a2-6)Gal(b1-4)GlcNAc(b1-3)Gal(b1-4)GlcNAc(b1-6)[Gal(b1-3)]GalNAc
# In short: as §1
# [32] = biological target: Neu5Ac(a2-6)Gal(b1-4)GlcNAc(b1-3)Gal(b1-4)[Fuc(a1-3)]GlcNAc(b1-3)Gal(b1-4)[Fuc(a1-3)]GlcNAc
# In short: as §1
# [33] = biological target: Neu5Ac(a2-6)Gal(b1-4)GlcNAc(b1-3)GalNAc
# In short: as §1
# [34] = biological target: Neu5Ac(a2-6)Gal(b1-4)GlcNAc(b1-3)[Neu5Ac(a2-6)Gal(b1-4)GlcNAc(b1-6)]GalNAc
# In short: as §1
# [35] = biological target: Neu5Ac(a2-6)Gal(b1-4)GlcNAc(b1-6)GalNAc
# In short: as §1
binder,measurement,setting,value
B1,glycan array binding signal (z-score),Neu5Ac(a2-3)GalNAc,-0.199
same,glycan array binding signal (z-score),[1],-0.13
same,glycan array binding signal (z-score),[2],-0.173
same,glycan array binding signal (z-score),[3],-0.147
same,glycan array binding signal (z-score),[4],-0.16
same,glycan array binding signal (z-score),[5],-0.176
same,glycan array binding signal (z-score),Neu5Ac(a2-6)Gal,-0.145
same,glycan array binding signal (z-score),[6],-0.185
same,glycan array binding signal (z-score),Neu5Ac(a2-6)Gal(b1-4)Glc,-0.191
same,glycan array binding signal (z-score),[7],-0.191
same,glycan array binding signal (z-score),[8],-0.149
same,glycan array binding signal (z-score),[9],-0.165
same,glycan array binding signal (z-score),[10],-0.122
same,glycan array binding signal (z-score),[11],-0.134
same,glycan array binding signal (z-score),[12],-0.166
same,glycan array binding signal (z-score),[13],0.661
same,glycan array binding signal (z-score),[14],-0.063
same,glycan array binding signal (z-score),[15],-0.135
same,glycan array binding signal (z-score),[16],-0.093
same,glycan array binding signal (z-score),[17],-0.065
same,glycan array binding signal (z-score),[18],-0.168
same,glycan array binding signal (z-score),[19],-0.118
same,glycan array binding signal (z-score),[20],1.79
same,glycan array binding signal (z-score),[21],-0.197
same,glycan array binding signal (z-score),[22],-0.176
same,glycan array binding signal (z-score),[23],-0.152
same,glycan array binding signal (z-score),[24],-0.193
same,glycan array binding signal (z-score),[25],-0.164
same,glycan array binding signal (z-score),[26],-0.105
same,glycan array binding signal (z-score),[27],-0.171
same,glycan array binding signal (z-score),[28],-0.148
same,glycan array binding signal (z-score),[29],-0.158
same,glycan array binding signal (z-score),[30],-0.134
same,glycan array binding signal (z-score),[31],-0.189
same,glycan array binding signal (z-score),[32],-0.134
same,glycan array binding signal (z-score),[33],-0.16
same,glycan array binding signal (z-score),[34],-0.174
same,glycan array binding signal (z-score),[35],-0.154
